Assay results: the supplement of paper PMC10126150
Sequences with one replicate were seen in a single cluster, so their values are uncertain.

The sequences below were run on ATP (assay: switch fluorescence ratio, 500 uM ATP over buffer (Cy3 cluster intensity, sum of 5 cycles each) (fold (ratio)); higher = stronger signal-on switching upon ATP binding; sequences stand for … in TCGTCGGCAGCGTCAGATGTGTATAAGAGACAGTTTTTTTTTTTTTTTTTTTTTTTTT…TC). Conditions: aptamer strand: ATP DNA aptamer (quencher-CACCTGGGGGAGTATTGCGGAGGAAGG + anchor), 100 nM annealed; ATP concentration: 500 uM; one replicate.
Method in brief: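 Cy3-labelled switching-strand clusters on a modified Illumina MiSeq flow-cell were annealed to 100 nM quencher-labelled ATP aptamer and imaged first in selection buffer, then after 15 min with 500 uM ATP at 22 °C. NaOH stripping and re-annealing separated each of five buffer/ATP cycles, and clusters outside 100-1000 RFU were excluded. The fluorescence ratio sums target-cycle Cy3 intensity over buffer-cycle Cy3 intensity per cluster and averages it per switch-domain sequence.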
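Further: ATP exposure 15 min at 22 °C before imaging.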

Row | Sequence | switch fluorescence ratio
1 | GAGGTGCCCG | 0.966
2 | GAGGTGGAG | 0.992
3 | GAGGTGGCGG | 0.976
4 | GAGGTTGGAC | 0.972
5 | GAGTAAGTGT | 0.987
6 | GAGTAGCCCC | 1.02
7 | GAGTAGCTCA | 1.05
8 | GAGTAGGTTG | 1
9 | GAGTATAAAA | 1.01
10 | GAGTCAAGAG | 1.12
11 | GAGTCAAGAT | 1.04
12 | GAGTCACATT | 1.03
13 | GAGTCCATGT | 0.978
14 | GAGTCCGGTA | 1.12
15 | GAGTCGCAGG | 0.997
16 | GAGTCGCATA | 1.1
17 | GAGTCGCCAA | 1.03
18 | GAGTCGGAAA | 1.02
19 | GAGTCGGGGA | 1.02
20 | GAGTCTACTT | 1.02
21 | GAGTCTGACG | 1.05
22 | GAGTCTGATC | 1.02
23 | GAGTGAGAC | 1.06
24 | GAGTGATGCT | 1.05
25 | GAGTGGCTGT | 0.978

Row | Sequence | switch fluorescence ratio
26 | GAGTGGGACT | 0.994
27 | GAGTGTGGTA | 1.01
28 | GAGTGTGTGG | 0.969
29 | GAGTTAACGA | 1.01
30 | GAGTTAACTT | 1.02
31 | GAGTTAAGGT | 0.962
32 | GAGTTAGATG | 0.949
33 | GAGTTAGGGT | 0.981
34 | GAGTTATCGC | 1.01
35 | GAGTTCGATG | 0.973
36 | GAGTTCTGCC | 1.02
37 | GAGTTCTTGA | 0.993
38 | GAGTTGAGGC | 0.972
39 | GAGTTGGCAT | 1
40 | GAGTTTAGCC | 0.961
41 | GAGTTTCAAA | 1.04
42 | GAGTTTGATA | 1.04
43 | GAGTTTTACT | 0.992
44 | GATAAAGTGT | 1.02
45 | GATAACAACC | 1.04
46 | GATAACATCC | 0.98
47 | GATAAGTTCG | 0.994
48 | GATAATCGTT | 0.997
49 | GATAATGGGC | 1.01
50 | GATAATGGT | 1.04

Row | Sequence | switch fluorescence ratio
51 | GATAATTTTA | 1.03
52 | GATACAATTT | 1.09
53 | GATACAGAAT | 1.09
54 | GATACCAACT | 1.06
55 | GATACGTCAC | 2.06
56 | GATACTGAGG | 1.04
57 | GATACTTAGG | 1.02
58 | GATAGAGACC | 1.03
59 | GATAGGGTCC | 1
60 | GATAGTAAAC | 1.03
61 | GATAGTATAT | 1
62 | GATAGTCGAC | 1.01
63 | GATAGTGCGC | 0.974
64 | GATAGTTACG | 1.02
65 | GATATAAACA | 0.98
66 | GATATAATTG | 1.02
67 | GATATCGGGA | 1.03
68 | GATATGGTAT | 0.986
69 | GATATGGTGT | 0.999
70 | GATCAACTCT | 1.02
71 | GATCAATTGT | 0.983
72 | GATCACGATC | 1
73 | GATCAGATTG | 1.04
74 | GATCAGGTAG | 1.06
75 | GATCCATAG | 0.991

Row | Sequence | switch fluorescence ratio
76 | GATCCGCCTG | 1.22
77 | GATCCGTGCG | 1.02
78 | GATCCTGGTG | 1.45
79 | GATCGAGGAG | 1.02
80 | GATCGATGGG | 0.975
81 | GATCGCGGTT | 0.961
82 | GATCGGCAGG | 1.02
83 | GATCGGGGAG | 1.02
84 | GATCGTACGT | 0.965
85 | GATCGTATTT | 0.986
86 | GATCGTTGAG | 0.966
87 | GATCTAAGAA | 1.02
88 | GATCTAGATT | 1.01
89 | GATCTCAACG | 0.963
90 | GATCTCCTTT | 0.975
91 | GATCTTGAGG | 1.07
92 | GATCTTTTTC | 0.962
93 | GATGAAGAAG | 1.03
94 | GATGACCGGT | 0.992
95 | GATGATATGC | 1.05
96 | GATGATCTGT | 0.987
97 | GATGATGCT | 0.946
98 | GATGATTCTA | 1.02
99 | GATGCACGTT | 1.04
100 | GATGCATCCG | 1

Row | Sequence | switch fluorescence ratio
101 | GATGCATGTA | 0.965
102 | GATGCCCTTA | 1.02
103 | GATGCGCCCT | 0.979
104 | GATGCGGGGT | 0.993
105 | GATGCTGGAT | 0.925
106 | GATGCTGTTT | 0.96
107 | GATGGAATAA | 1.11
108 | GATGGACCAC | 1.04
109 | GATGGACCGC | 1.05
110 | GATGGAGACG | 1.05
111 | GATGGAGGTA | 1.02
112 | GATGGCGGTC | 0.988
113 | GATGGGAGAG | 1
114 | GATGGGCATA | 1
115 | GATGGGTTAC | 1.07
116 | GATGGGTTT | 0.986
117 | GATGGTTGGT | 1.01
118 | GATGTAATGG | 1.08
119 | GATGTCCTTT | 0.988
120 | GATGTCGCGG | 0.997
121 | GATGTCGGCG | 1.06
122 | GATGTGGTTG | 1.05
123 | GATGTGTTTA | 1.02
124 | GATGTTATGA | 1
125 | GATGTTCCAT | 0.98

Row | Sequence | switch fluorescence ratio
126 | GATGTTCTTG | 0.988
127 | GATGTTGAGG | 0.933
128 | GATGTTTGAA | 1.01
129 | GATTAACGTA | 1.11
130 | GATTAAGCGA | 1.06
131 | GATTAATTTA | 1.01
132 | GATTAGGACC | 0.978
133 | GATTATAAGC | 0.989
134 | GATTATACTA | 0.968
135 | GATTATGAT | 1.04
136 | GATTATTGAC | 1.07
137 | GATTCAGTAG | 1.03
138 | GATTCATGCT | 0.986
139 | GATTCCGCGG | 1.17
140 | GATTCCTGGT | 1.04
141 | GATTCGGCTG | 0.987
142 | GATTCTGGTC | 1.04
143 | GATTCTTCGG | 0.956
144 | GATTGACCAA | 0.981
145 | GATTGAGAAC | 0.965
146 | GATTGAGGCT | 1.03
147 | GATTGATAAC | 1.08
148 | GATTGGCGAC | 0.917
149 | GATTGGGACG | 0.991
150 | GATTGGGAGT | 1

Row | Sequence | switch fluorescence ratio
151 | GATTGGTCTC | 1.01
152 | GATTGTCACG | 0.934
153 | GATTGTCGGT | 0.977
154 | GATTGTGAGA | 1.02
155 | GATTGTTGAA | 1.01
156 | GATTTACCTT | 1.12
157 | GATTTATCCG | 0.987
158 | GATTTATTCA | 1.01
159 | GATTTCCTT | 1.03
160 | GATTTCGGCA | 0.994
161 | GATTTCGGCC | 1.14
162 | GATTTGCGTC | 0.976
163 | GATTTGCTAT | 1.05
164 | GATTTGGTAC | 1.04
165 | GCAAAAAGGG | 1.01
166 | GCAAAACGGT | 1.03
167 | GCAAAAGCGG | 0.971
168 | GCAAAATTAT | 1.01
169 | GCAAACTATC | 1.54
170 | GCAAATAATC | 0.971
171 | GCAACCCCAC | 1.28
172 | GCAACCGGGT | 1.02
173 | GCAACGGCTA | 1.04
174 | GCAACTAGCA | 1.07
175 | GCAACTAGCG | 1.05

Row | Sequence | switch fluorescence ratio
176 | GCAAGACTAG | 1.06
177 | GCAAGATAAC | 1.13
178 | GCAAGTATTT | 0.938
179 | GCAAGTTTTC | 0.97
180 | GCAATAAGAT | 1.09
181 | GCAATCAAAG | 1.22
182 | GCAATCGCGC | 1.2
183 | GCAATCGGTG | 1.34
184 | GCAATCTGGA | 1.07
185 | GCAATGAGCG | 1.01
186 | GCAATGGCTC | 2.67
187 | GCAATTATAG | 1.09
188 | GCAATTTCAA | 1.04
189 | GCAATTTTGG | 1.01
190 | GCACACGGGC | 0.972
191 | GCACAGGACA | 1.19
192 | GCACAGGTGG | 1.33
193 | GCACATACAA | 1.39
194 | GCACATATCG | 1.05
195 | GCACATGTCT | 1.12
196 | GCACCCATTA | 1.02
197 | GCACCCCGAT | 1.08
198 | GCACCCCGGT | 1.16
199 | GCACCCGAGT | 1.05
200 | GCACCGCTTG | 1
